The supplement of paper PMC12217912
Some of the results follow. Sequences were assembled here from the parent chain. Inactive controls read about 0.05.

B1: TEV protease; numbered along this chain (parent)
chain: MGESLFKGPRDYNPISSSICHLTNESDGHTTSLYGIGFGPFIITNKHLFRRNNGTLVVQSLHGVFKVKDTTTLQQHLVDGRDMIIIRMPKDFPPFPQKLKFREPQREERICLVTTNFQTKSMSSMVSDTSCTFPSGDGIFWKHWIQTKDGQCGSPLVSTRDGFIVGIHSASNFTNTNNYFTSVPKNFMELLTNQEAQQWVSGWRLNADSVLWGGHKVFMVKPEEPFQPVKEATQL

Variants of: B1
Experiment: raw area under fraction-flipped curve 0-4 h after induction (AUC4h, not background-subtracted), DNA-recorder readout of cleavage of the substrate (dimensionless); higher = more cleavage of the substrate by the protease variant
Details: temperature: 34 °C; time window: 0-4 h after rhamnose induction
Protocol: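 In vivo DNA recorder in E. coli TOP10(DE3) ΔrhaA at 34 °C. Each TEVp single-site mutant (parent TEVp 0) is paired with a single-site variant of the 7-mer TEVs (canonical ENLYFQ|S). The substrate sits between flexible linkers in a Bxb1-sfGFP-TEVs-SsrA fusion, so cleavage stabilises Bxb1 and speeds flipping of a recombination array, read by NGS. The value is the raw area under the fraction-flipped curve over 0-4 h after rhamnose induction (AUC4h), with ≥20 reads per time point. It is not background-subtracted; inactive controls average about 0.047.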
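Note: Bxb1 expression induced with 0.2% (w/v) L-rhamnose at OD600 near 0.5, cultures sampled hourly, flipped fraction per protease–substrate barcode pair counted by paired-end Illumina sequencing.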

Row | Variant | area with substrate DNLYFQS | area with substrate LNLYFQS | area with substrate MNLYFQS | area with substrate FNLYFQS | area with substrate GNLYFQS | area with substrate HNLYFQS | area with substrate KNLYFQS | area with substrate PNLYFQS | area with substrate VNLYFQS | area with substrate TNLYFQS | area with substrate WNLYFQS | area with substrate YNLYFQS | area with substrate INLYFQS | area with substrate NNLYFQS | area with substrate RNLYFQS | area with substrate SNLYFQS | area with substrate QNLYFQS
1 | V78Q | 0.0906 | 0.0621 | 0.0586 |  |  |  |  |  |  |  |  |  |  |  |  |  | 
2 | D79C | 0.0372 | 0.0765 |  | 0.0573 | 0.0656 | 0.0556 | 0.0735 | 0.0677 | 0.0515 |  |  |  |  |  |  |  | 
3 | D82C | 0.0563 |  |  |  | 0.0237 | 0.0542 | 0.0606 | 0.0622 |  | 0.0647 | 0.041 | 0.0497 |  |  |  |  | 
4 | D82T | 0.0506 | 0.0441 | 0.0539 | 0.0551 | 0.0536 | 0.0622 | 0.0708 |  | 0.0675 | 0.0584 | 0.0975 | 0.0613 | 0.0505 | 0.0465 |  |  | 
5 | M83H | 0.0579 | 0.0312 | 0.0594 |  |  | 0.0636 | 0.059 | 0.0603 | 0.0498 | 0.0523 | 0.0554 | 0.0485 | 0.0434 |  | 0.0599 | 0.052 | 
6 | M83N | 0.0548 | 0.0583 | 0.0376 |  |  | 0.0496 |  | 0.0848 |  | 0.0789 | 0.0512 |  |  | 0.0622 |  | 0.0458 | 0.0627
7 | I84M | 0.088 | 0.0627 |  | 0.0612 |  |  | 0.0359 | 0.0704 |  | 0.0628 | 0.065 |  |  |  |  |  | 
8 | I85Q | 0.0635 | 0.0472 |  | 0.0495 | 0.0476 | 0.0407 |  | 0.0406 | 0.057 | 0.054 | 0.0257 | 0.0406 | 0.0389 |  |  | 0.0523 | 
9 | I85S | 0.0537 | 0.0472 | 0.0507 | 0.0589 | 0.0592 | 0.0627 | 0.0426 |  |  |  | 0.0594 | 0.0609 |  |  |  | 0.0696 | 
10 | I86M | 0.0793 | 0.0507 | 0.0615 | 0.063 |  | 0.0821 | 0.0647 | 0.0603 | 0.0735 |  | 0.0575 |  | 0.097 | 0.0627 | 0.044 |  | 0.0566
11 | I86P | 0.0534 | 0.0452 |  |  |  |  |  | 0.0345 |  |  | 0.0409 | 0.0336 |  |  | 0.0417 | 0.0428 | 
12 | R87M | 0.0783 | 0.0616 |  | 0.0727 |  | 0.0796 | 0.0623 | 0.0624 |  | 0.0725 | 0.0582 | 0.0472 |  | 0.0736 |  |  | 
13 | P89I | 0.0568 |  | 0.0591 |  |  | 0.042 | 0.0351 | 0.0485 |  | 0.0483 | 0.0157 |  |  | 0.0442 |  | 0.0463 | 
14 | P89K | 0.0804 |  | 0.0577 | 0.0555 |  | 0.074 | 0.0567 | 0.0629 |  |  | 0.0396 |  |  |  |  |  | 
15 | P89R | 0.0967 |  | 0.0564 | 0.0531 | 0.0544 | 0.0635 | 0.0657 |  | 0.0667 | 0.0606 | 0.0487 |  |  | 0.0676 | 0.0562 | 0.0581 | 
16 | P89T | 0.0736 |  |  |  | 0.0564 | 0.0683 | 0.0382 | 0.0833 | 0.0843 |  | 0.0537 | 0.0532 | 0.0737 | 0.0578 |  | 0.0662 | 
17 | K90D | 0.0726 | 0.0687 |  |  |  | 0.0734 | 0.0931 |  | 0.0535 |  | 0.0773 | 0.0656 | 0.0582 |  |  |  | 
18 | K90E | 0.11 | 0.0634 |  |  |  | 0.0525 | 0.0678 |  |  |  | 0.0585 |  |  |  |  |  | 
